Among the data in paper PMC12136788 are binding signal values, retold here.

The other results are listed elsewhere or left out.

Sequences and labels used below:
B1: chr6:41757443:41757444:+_ENSG00000214736_ENST00000398881|hu_mus|hu_hu_hu_mus_False|48_108 (ssRNA)
RNA: GGGAGUUCUACAGUCCGACGAUCGAACUGUCUGCUGGCAACAUCUCAGCCGACACUGGGGGAUGGGGGGGCAGUGGGGGGGGGUUCAGGGAAGGGGAGGGAGUCAACUUCAGCUGCCACUCAGGUAGGAUCUUGUGGUCACAGCAACAGAGGAUUGAGCAUCA
B2: chr2:121258011:121258012:+_ENSMUSG00000027248_ENSMUST00000028683|mus_hu|FALSE|FALSE (ssRNA)
RNA: GGGAGUUCUACAGUCCGACGAUCCUUGCCCUGUAUCAAAUCUUUAUUGUCUUCUGUCAUGUGAGGGCAGAUACCAAAAAUGUUUUCCUGGAUAAACUUUUUAAUUUUGCCACUGGUCAUUUUUUGCUCUGUAUAUGCCACAGUCAACAGAGGAUUGAGCAUCA
B3: chr2:25301763:25301764:+_ENSMUSG00000026944_ENSMUST00000102919|mus_hu|FALSE|FALSE (ssRNA)
RNA: GGGAGUUCUACAGUCCGACGAUCGAGCUUCCGCUUGUUGCCGCCGCUGUAGGUGCCAGCCGGCUUGUCUGCGUACUUGGUCAGCUCCAGCUUCUCCAGAGCCCACUUCACCACCCGGGCCUCGUCCUUCCAGGAGAUCCCACGCAACAGAGGAUUGAGCAUCA
B4: chr1:46159212:46159213:+_ENSG00000159596_ENST00000372025|hu_mus|hu_hu_hu_mus_True|48_98 (ssRNA)
RNA: GGGAGUUCUACAGUCCGACGAUCUCUGAUCCCUCCCAAGAAAGAUAGGAAACCGGCUCCAUAAGCCAUCUGAGUGAAAGCUAGGACGGGAAUAUAAGACUUUGUUAUUACCAUGAGAAGUGGGGGAGCAGUAAAGGGGAUUAACAACAGAGGAUUGAGCAUCA
B5: chr17:71578653:71578654:+_ENSMUSG00000024052_ENSMUST00000129635|mus_mus|FALSE|FALSE (ssRNA)
RNA: GGGAGUUCUACAGUCCGACGAUCAGAUCCUCUUGCUGCCUGGGCUCUCUUCUCAUCAUCUGAGCUCACACCCACAUCACCUACAUCUUCUGCAACAGGGGAAGCUGCCUGCUCCUCCUUCCUAUUGUCCUGUUUGCACUUCUUCAACAGAGGAUUGAGCAUCA
B6: chr3:95749504:95749505:+_ENSMUSG00000015749_ENSMUST00000165307|mus_mus|motif|central (ssRNA)
RNA: GGGAGUUCUACAGUCCGACGAUCAGUGUAAUUGGUUAAUUUAUAAAUAACUUUAAAACACUAUGAAUGAAAUGCACCAAACGGCACCUGUGUAAAAGCAACAAUGUUUUAAUUAUGGGCUAAAAAUGUCUAAUACAUUAAGCACAACAGAGGAUUGAGCAUCA
B7: chr5:124080617:124080618:-_ENSMUSG00000049550_ENSMUST00000063905|mus_hu|FALSE|FALSE (ssRNA)
RNA: GGGAGUUCUACAGUCCGACGAUCUUCCAUCUCUUUAGCAUGGGCAGCCCGUUCAGAGUCUUGUUGAUUCUGCAAAUUUUCUAUUUCGUGUUGGUAAUCUAGUCUCAUUUUCUCUAUUUGUGUUUUUAGUUCAGCAAAUUCUGCCAACAGAGGAUUGAGCAUCA
B8: 75715083_75722566_392_CDS_ENSG00000169375_ENST00000360439|human|control|control (ssRNA)
RNA: GGGAGUUCUACAGUCCGACGAUCCGCUGUUGGGUGAUGAUGGCUGCUAUGAACUGCUGCUAUAGCGGGCCCAUGACUGCCGGAGCUCUGUGGCAUGGCUGAAACCUGGUAGCUGGGUGUUACAGAGUACUGAAUUCCCGUAGCCAACAGAGGAUUGAGCAUCA
B9: chrX:123197699:123197700:+_ENSG00000101972_ENST00000371157|hu_hu|motif|central (ssRNA)
RNA: GGGAGUUCUACAGUCCGACGAUCUGUGUGCUUCUCUACAAUAUUCCGGAUCUGUCGCAAUAAGGCAUCCAAAUGCUUUUCGGAUCGUCCAGUGGUAUAUAUUUCCAAAUCAAAGUACUGAGGCAACUGCAACAAGUUAGUCACCAACAGAGGAUUGAGCAUCA
B10: chr3:10168198:10168199:+_ENSG00000254999_ENST00000256463|hu_mus|FALSE|FALSE (ssRNA)
RNA: GGGAGUUCUACAGUCCGACGAUCCACCUCAAACACAUUGACAAGUAGUUCCGAACAAUGUUACUGAAAAGGGAAAAAGCCUAAUGCUGUUUCCAAGAGGUCCCCUGGACUGCUUGCUCCCCCAUGCCACGUCAUACCCCAGGGCAACAGAGGAUUGAGCAUCA
B11: chrX:153993181:153993182:+_ENSG00000130826_ENST00000369550|hu_mus|FALSE|FALSE (ssRNA)
RNA: GGGAGUUCUACAGUCCGACGAUCAACAUCAUCUUCUUGUAAUGGCUUCCGGUCUUUUUUCUUCUUAUGCUUCUUUGGGAAUGUAAUUACUUCUGCAUCCGCCAUCUUGAACUGCACCGCGUGCGUCCCGCCCAAGCCGCCACACAACAGAGGAUUGAGCAUCA
B12: chr14:65675725:65675726:-_ENSMUSG00000021978_ENSMUST00000022550|mus_hu|FALSE|FALSE (ssRNA)
RNA: GGGAGUUCUACAGUCCGACGAUCGAUGGGGGGCUUCCGAGUGAUGUGGGAGACAAGGAAGUUCAUGGCAAUGUCCUCACAGUUGAUGUAUUCAUCCACCAUGUCCCGGAUGGCCUGGGGCAUCACAUAAGAAUACAGGUAGGCCAACAGAGGAUUGAGCAUCA
B13: chr2:198351390:198351391:-_ENSG00000144381_ENST00000345042|hu_hu|hu_hu_hu_mus_False|48_78 (ssRNA)
RNA: GGGAGUUCUACAGUCCGACGAUCUCAUUCCCACCCUCCACAGAAAGGCUGCUUCUGUUCUCAUCUGUGGUGACACAGCGCUACAGUCCUGAUUUUAACAGAACAGUAGAGAUGCCUCAGUGAUUUAAGUUGAAAGCAGGACACCAACAGAGGAUUGAGCAUCA
B14: chr1:168153195:168153196:+_ENSG00000143155_ENST00000367833|hu_mus|FALSE|FALSE (ssRNA)
RNA: GGGAGUUCUACAGUCCGACGAUCUAGAACGUUGUCUCCAAACAUCAUUUCAGGGAGGGAUGGCAUGUGCAGCUCGUCAGCUAACUUUUCCACAUCCGCAGACUUCAUGAUGUGGGUCUUGGACGCCGUCAGCUUCCAAGGCCCCAACAGAGGAUUGAGCAUCA
B15: chr7:141450121:141450122:+_ENSG00000106028_ENST00000265304|hu_mus|hu_hu_hu_mus_True|8_8 (ssRNA)
RNA: GGGAGUUCUACAGUCCGACGAUCUCAUCCGUUCUAUGCCUUUUCUUUUGUCUGGUCACUCAGAAAUAUAAUGUUAUCAGCUAUGAUUGUUGUUGCUUGCCGCCUCACAUUGUUUUUAUCCAUGUACUCACCAUAGUCCACUUUCAACAGAGGAUUGAGCAUCA
B16: chr5:146773622:146773623:-_ENSG00000113657_ENST00000343218|hu_hu|FALSE|FALSE (ssRNA)
RNA: GGGAGUUCUACAGUCCGACGAUCCUUCUGCCCCUCUCUUUGAGGAAGGCUUGCUUAACUCAGAGAUGUGAUAUUAGAACGGCCGCCUGGGGGCGCCACGAUGCGCUUGCUGGCUGAGCGAACCCCCUCAUCCACUUGGGUGCCCAACAGAGGAUUGAGCAUCA
B17: chr13:103053924:103053925:-_ENSG00000102466_ENST00000376131|hu_hu|FALSE|FALSE (ssRNA)
RNA: GGGAGUUCUACAGUCCGACGAUCCAUAUGCGUUCCUUUGCUGAAAAUGUUCCAAAGAAACCACAUUGAUUUGGGCGAAAAGCAAUCCAGCAGCUUAGACACCCUGAGAAAGAAGAGAUCCUUGUGGUUGCAUAAUAAUAAUUUCAACAGAGGAUUGAGCAUCA
B18: chr7:34935884:34935885:-_ENSMUSG00000052997_ENSMUST00000102746|mus_hu|FALSE|FALSE (ssRNA)
RNA: GGGAGUUCUACAGUCCGACGAUCUAAAAUCUUCAAUCCUUCCAAUACUAUCAACCCAGCAAUUACUGCAUUAGUAGUAGCAAUAGCAGGAAUAAUGUUCCCUGCCAUUGAUUUGAUAUCAAAUCUACUCUUCAUAUUCAUACUCAACAGAGGAUUGAGCAUCA
B19: chr8:42417948:42417949:+_ENSMUSG00000031592_ENSMUST00000045218|mus_mus|FALSE|FALSE (ssRNA)
RNA: GGGAGUUCUACAGUCCGACGAUCUUCUAGUUACUAACAAUGUCUGAACUGUGUAUACAGUCUGAGUUAUUAACAUGUUCUAAGACCACUGAGAUUCAUCUGCUUUAUUCGCACACAAGAGCAGGAACUACAAGAACAUCAGACCAACAGAGGAUUGAGCAUCA
B20: 54640594_54640714_1659_3pUTR_ENSMUSG00000031134_ENSMUST00000098470|mouse|control|control (ssRNA)
RNA: GGGAGUUCUACAGUCCGACGAUCAUGGCAACACUAUAAAUUGUAUAUAUACAACAUUUAAAUCUGAAUUUACAGAAUUCUUUGUAUUAAAAGUUCACUUUCUCAACUGGGAAGUUUUAAACUCUACCAUUGCUGGCCAUAAGACAACAGAGGAUUGAGCAUCA
B21: chr5:134670393:134670394:-_ENSG00000113648_ENST00000304332|hu_hu|motif|central (ssRNA)
RNA: GGGAGUUCUACAGUCCGACGAUCUAAAAGACGCUGUUCUCCCCACUGCUGUGCGUCAAUCAGGGUUUCAUUAAAAUAAAACGGUAAAAUCUCCUAGGUUACACUAAGUCAGACACGGUCUGGAACACAGUGCUUAACAACAGUCAACAGAGGAUUGAGCAUCA
B22: 105363258_105363378_1933_CDS_ENSG00000107957_ENST00000369774|human|control|control (ssRNA)
RNA: GGGAGUUCUACAGUCCGACGAUCGCUCAGCUCAGGCUCUGAGUCAAAGCCGAAUGCAGGGAUGUCAUACUCAGGCUCCUCAUACUUGAGCUUCCGCGGGGAGUCCUGGCUCUCACUGGCCCCCGUAGGGCCCUCCUCGGCCUCCAACAGAGGAUUGAGCAUCA

The test concerns the target T1, UNK ZnF1-3 (human, UniProt Q9C0B0 31-174).
T1 sequence: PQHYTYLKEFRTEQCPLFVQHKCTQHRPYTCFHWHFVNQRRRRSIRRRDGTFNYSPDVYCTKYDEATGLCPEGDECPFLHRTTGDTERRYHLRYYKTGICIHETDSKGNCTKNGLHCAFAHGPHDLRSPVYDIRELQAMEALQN
The experiment in a line: nsRBNS (natural sequence RNA bind-n-seq); RBNS binding buffer (assumed for nsRBNS): 25 mM Tris pH 7.5, 150 mM KCl, 3 mM MgCl2, 0.01% Triton X-100, 500 ug/ml BSA, 20 U/ml SUPERase-In, 4 C; UNK is unkempt and MSI1 is Musashi-1; names of the RNAs are library labels; protein concentration not given here; high values mean tight binding.
B1 had a binding signal of 1.41 enrichment R. With B2, the binding signal amounted to 0.755 enrichment R.

B3: the binding signal is 0.731 enrichment R. For B4, the binding signal worked out at 1.49 enrichment R. B5: the binding signal is 0.85 enrichment R. Turning to B6, the binding signal worked out at 2.39 enrichment R. As to B7, the binding signal worked out at 0.456 enrichment R. Regarding B8, the binding signal worked out at 1.08 enrichment R.

As to B9, the binding signal is 1.32 enrichment R. In turn, B10 gave a binding signal of 1.08 enrichment R. Next, B11: 1.35 enrichment R; B12: 1.37 enrichment R; B13: 1.16 enrichment R. For the molecule B14, the binding signal was found to be 0.866 enrichment R.

The molecule B15 returned a binding signal of 0.437 enrichment R.

Consider B16, for which the binding signal is 0.797 enrichment R.

On to B17, for which the binding signal was 1.33 enrichment R. Next, B18: 0.693 enrichment R; B19: 1.15 enrichment R; B20: 0.719 enrichment R. The result for B21 reads 1.13 enrichment R. On to B22, for which the binding signal was found to be 0.948 enrichment R.
